This is one part of the list.
Assays:
Experiment in all cases: glycan array binding signal (z-score within array); higher = stronger binding
Settings in all cases: glycan notation: IUPAC condensed, linker removed
[1] = molecular target: Gal(b1-4)GlcNAc(b1-3)Gal(b1-4)GlcNAc(b1-3)Gal(b1-4)GlcNAc(b1-3)Gal(b1-4)GlcNAc(b1-2)Man(a1-3)[Gal(b1-4)GlcNAc(b1-3)Gal(b1-4)GlcNAc(b1-3)Gal(b1-4)GlcNAc(b1-3)Gal(b1-4)GlcNAc(b1-2)Man(a1-6)]Man(b1-4)GlcNAc(b1-4)GlcNAc
Procedure, shortened: (§1)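 Negative Z-scores can be read as non-binding. The Z-score is calculated within each array and then averaged across arrays of one protein sequence at different concentrations or buffers and across linkers. Arrays, 3228 in all, were curated from the Consortium for Functional Glycomics database and kept only where the protein sequence was available.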

[2] = molecular target: Gal(b1-4)GlcNAc(b1-3)Gal(b1-4)GlcNAc(b1-3)Gal(b1-4)GlcNAc(b1-3)Gal(b1-4)GlcNAc(b1-2)Man(a1-3)[Gal(b1-4)GlcNAc(b1-3)Gal(b1-4)GlcNAc(b1-3)Gal(b1-4)GlcNAc(b1-3)Gal(b1-4)GlcNAc(b1-2)Man(a1-6)]Man(b1-4)GlcNAc(b1-4)[Fuc(a1-6)]GlcNAc
Procedure, shortened: as §1

[3] = molecular target: Gal(b1-4)GlcNAc(b1-3)Gal(b1-4)GlcNAc(b1-3)Gal(b1-4)GlcNAc(b1-3)Gal(b1-4)GlcNAc(b1-2)[Gal(b1-4)GlcNAc(b1-3)Gal(b1-4)GlcNAc(b1-3)Gal(b1-4)GlcNAc(b1-3)Gal(b1-4)GlcNAc(b1-6)]Man(a1-6)[Gal(b1-4)GlcNAc(b1-3)Gal(b1-4)GlcNAc(b1-3)Gal(b1-4)GlcNAc(b1-3)Gal(b1-4)GlcNAc(b1-2)Man(a1-3)]Man(b1-4)GlcNAc(b1-4)[Fuc(a1-6)]GlcNAc
Procedure, shortened: as §1

[4] = molecular target: Gal(b1-4)GlcNAc(b1-3)Gal(b1-4)GlcNAc(b1-3)Gal(b1-4)GlcNAc(b1-3)Gal(b1-4)GlcNAc(b1-3)Gal(b1-4)GlcNAc(b1-2)Man(a1-3)[Gal(b1-4)GlcNAc(b1-3)Gal(b1-4)GlcNAc(b1-3)Gal(b1-4)GlcNAc(b1-3)Gal(b1-4)GlcNAc(b1-3)Gal(b1-4)GlcNAc(b1-2)Man(a1-6)]Man(b1-4)GlcNAc(b1-4)GlcNAc
Procedure, shortened: as §1

[5] = molecular target: Gal(b1-4)GlcNAc(b1-3)Gal(b1-4)GlcNAc(b1-3)Gal(b1-4)GlcNAc(b1-3)Gal(b1-4)GlcNAc(b1-3)Gal(b1-4)GlcNAc(b1-2)Man(a1-3)[Gal(b1-4)GlcNAc(b1-3)Gal(b1-4)GlcNAc(b1-3)Gal(b1-4)GlcNAc(b1-3)Gal(b1-4)GlcNAc(b1-3)Gal(b1-4)GlcNAc(b1-2)Man(a1-6)]Man(b1-4)GlcNAc(b1-4)[Fuc(a1-6)]GlcNAc
Procedure, shortened: as §1

[6] = molecular target: Gal(b1-4)GlcNAc(b1-3)Gal(b1-4)GlcNAc(b1-3)Gal(b1-4)GlcNAc(b1-3)Gal(b1-4)GlcNAc(b1-3)Gal(b1-4)GlcNAc(b1-2)[Gal(b1-4)GlcNAc(b1-3)Gal(b1-4)GlcNAc(b1-3)Gal(b1-4)GlcNAc(b1-3)Gal(b1-4)GlcNAc(b1-3)Gal(b1-4)GlcNAc(b1-6)]Man(a1-6)[Gal(b1-4)GlcNAc(b1-3)Gal(b1-4)GlcNAc(b1-3)Gal(b1-4)GlcNAc(b1-3)Gal(b1-4)GlcNAc(b1-3)Gal(b1-4)GlcNAc(b1-2)Man(a1-3)]Man(b1-4)GlcNAc(b1-4)[Fuc(a1-6)]GlcNAc
Procedure, shortened: as §1

[7] = molecular target: Gal(b1-4)GlcNAc(b1-3)Gal(b1-4)GlcNAc(b1-3)Gal(b1-4)GlcNAc(b1-3)Gal(b1-4)GlcNAc(b1-3)Gal(b1-4)GlcNAc(b1-3)Gal(b1-4)GlcNAc(b1-2)Man(a1-3)[Gal(b1-4)GlcNAc(b1-3)Gal(b1-4)GlcNAc(b1-3)Gal(b1-4)GlcNAc(b1-3)Gal(b1-4)GlcNAc(b1-3)Gal(b1-4)GlcNAc(b1-3)Gal(b1-4)GlcNAc(b1-2)Man(a1-6)]Man(b1-4)GlcNAc(b1-4)GlcNAc
Procedure, shortened: as §1

[8] = molecular target: Gal(b1-4)GlcNAc(b1-3)Gal(b1-4)GlcNAc(b1-3)GalNAc
Procedure, shortened: as §1

[9] = molecular target: Gal(b1-4)GlcNAc(b1-3)Gal(b1-4)GlcNAc(b1-3)[Gal(b1-4)GlcNAc(b1-3)Gal(b1-4)GlcNAc(b1-6)]GalNAc
Procedure, shortened: as §1

[10] = molecular target: Gal(b1-4)GlcNAc(b1-3)Gal(b1-4)GlcNAc(b1-6)[Gal(b1-3)]GalNAc
Procedure, shortened: as §1

[11] = molecular target: Gal(b1-4)GlcNAc(b1-3)Gal(b1-4)[Fuc(a1-3)]GlcNAc(b1-3)Gal(b1-4)[Fuc(a1-3)]GlcNAc
Procedure, shortened: as §1

[12] = molecular target: Gal(b1-4)GlcNAc(b1-3)GalNAc
Procedure, shortened: as §1

[13] = molecular target: Gal(b1-4)GlcNAc(b1-3)[Fuc(a1-3)GlcNAc(b1-6)]Gal(b1-4)Glc
Procedure, shortened: as §1

[14] = molecular target: Gal(b1-4)GlcNAc(b1-3)[Gal(b1-4)GlcNAc(b1-6)]Gal(b1-4)GlcNAc
Procedure, shortened: as §1

[15] = molecular target: Gal(b1-4)GlcNAc(b1-3)[GlcNAc(b1-6)]Gal(b1-4)GlcNAc
Procedure, shortened: as §1

[16] = molecular target: Gal(b1-4)GlcNAc(b1-6)Gal(b1-4)GlcNAc
Procedure, shortened: as §1

[17] = molecular target: Gal(b1-4)GlcNAc(b1-6)GalNAc
Procedure, shortened: as §1

[18] = molecular target: Gal(b1-4)GlcNAc(b1-6)[Gal(b1-3)]GalNAc
Procedure, shortened: as §1

[19] = molecular target: Gal(b1-4)GlcNAc(b1-6)[Gal(b1-4)GlcNAc(b1-3)]GalNAc
Procedure, shortened: as §1

Gal(b1-4)GlcNAc6P = molecular target: Gal(b1-4)GlcNAc6P
Procedure, shortened: as §1

Gal(b1-6)Gal = molecular target: Gal(b1-6)Gal
Procedure, shortened: as §1

Gal3S(b1-3)GalNAc = molecular target: Gal3S(b1-3)GalNAc
Procedure, shortened: as §1

Gal3S(b1-3)GlcNAc = molecular target: Gal3S(b1-3)GlcNAc
Procedure, shortened: as §1

B1: SSR2 (Sclerotium rolfsii) (protein)
chain: MVYKITVRVYQTNPDAFFHPVEKTVWKYANGGTWSITDDQHVLTMGGSGTSGTLRFHADNGESFTATFGVHNYKRWCDIVTNLAADETGMVINQQYYSQKNREEARERQLSNYQVKNAKGRNFQIVYTEAEGNDLHANLIIG
[1]
  glycan array binding signal (z-score): -0.285
[2]
  glycan array binding signal (z-score): -0.27
[3]
  glycan array binding signal (z-score): -0.257
[4]
  glycan array binding signal (z-score): -0.276
[5]
  glycan array binding signal (z-score): -0.261
[6]
  glycan array binding signal (z-score): -0.265
[7]
  glycan array binding signal (z-score): -0.257
[8]
  glycan array binding signal (z-score): -0.233
[9]
  glycan array binding signal (z-score): -0.247
[10]
  glycan array binding signal (z-score): 0.567
[11]
  glycan array binding signal (z-score): -0.284
[12]
  glycan array binding signal (z-score): -0.281
[13]
  glycan array binding signal (z-score): -0.263
[14]
  glycan array binding signal (z-score): -0.304
[15]
  glycan array binding signal (z-score): 0.558
[16]
  glycan array binding signal (z-score): -0.301
[17]
  glycan array binding signal (z-score): -0.278
[18]
  glycan array binding signal (z-score): 1.31
[19]
  glycan array binding signal (z-score): -0.288
Gal(b1-4)GlcNAc6P
  glycan array binding signal (z-score): -0.276
Gal(b1-6)Gal
  glycan array binding signal (z-score): -0.29
Gal3S(b1-3)GalNAc
  glycan array binding signal (z-score): 4.27
Gal3S(b1-3)GlcNAc
  glycan array binding signal (z-score): -0.282

Source: the supplement of paper PMC8728848
